Data from paper PMC3142171.
These are yes or no findings as the source states them, for the method shown. For some assays here: Binding seen in cells or lysates may run through a third protein. Some entries that bind do so weakly or less than the wild type. For some assays here: Where a sequence is shown, tags or fusion partners need not be part of it.

Protein sequences, listed by entry. Tags and fused reporters are not part of them. Lines headed by an entry give the natural chain unless they say otherwise; changes in a name come on top. Residues count along the entry.
UniProt Q13838: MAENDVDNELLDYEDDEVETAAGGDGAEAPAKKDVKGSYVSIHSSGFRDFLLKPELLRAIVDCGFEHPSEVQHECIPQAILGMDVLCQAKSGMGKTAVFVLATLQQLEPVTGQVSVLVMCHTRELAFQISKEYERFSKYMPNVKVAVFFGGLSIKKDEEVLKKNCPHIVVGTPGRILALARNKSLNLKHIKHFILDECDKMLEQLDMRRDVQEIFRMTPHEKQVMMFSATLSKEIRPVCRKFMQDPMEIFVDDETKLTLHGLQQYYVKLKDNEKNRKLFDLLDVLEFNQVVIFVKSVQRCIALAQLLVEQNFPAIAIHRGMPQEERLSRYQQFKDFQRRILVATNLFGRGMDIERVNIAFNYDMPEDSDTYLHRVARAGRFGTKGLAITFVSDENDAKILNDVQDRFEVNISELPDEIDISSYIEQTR
FLAG-UAP56aa1-194: residues 1-194 of Q13838
FLAG-UAP56aa195-428: residues 195-428 of Q13838
βGAL-NLS-UAP56aa227-428: residues 227-428 of Q13838
βGAL-NLS-UAP56aa298-428: residues 298-428 of Q13838
UniProt P16749: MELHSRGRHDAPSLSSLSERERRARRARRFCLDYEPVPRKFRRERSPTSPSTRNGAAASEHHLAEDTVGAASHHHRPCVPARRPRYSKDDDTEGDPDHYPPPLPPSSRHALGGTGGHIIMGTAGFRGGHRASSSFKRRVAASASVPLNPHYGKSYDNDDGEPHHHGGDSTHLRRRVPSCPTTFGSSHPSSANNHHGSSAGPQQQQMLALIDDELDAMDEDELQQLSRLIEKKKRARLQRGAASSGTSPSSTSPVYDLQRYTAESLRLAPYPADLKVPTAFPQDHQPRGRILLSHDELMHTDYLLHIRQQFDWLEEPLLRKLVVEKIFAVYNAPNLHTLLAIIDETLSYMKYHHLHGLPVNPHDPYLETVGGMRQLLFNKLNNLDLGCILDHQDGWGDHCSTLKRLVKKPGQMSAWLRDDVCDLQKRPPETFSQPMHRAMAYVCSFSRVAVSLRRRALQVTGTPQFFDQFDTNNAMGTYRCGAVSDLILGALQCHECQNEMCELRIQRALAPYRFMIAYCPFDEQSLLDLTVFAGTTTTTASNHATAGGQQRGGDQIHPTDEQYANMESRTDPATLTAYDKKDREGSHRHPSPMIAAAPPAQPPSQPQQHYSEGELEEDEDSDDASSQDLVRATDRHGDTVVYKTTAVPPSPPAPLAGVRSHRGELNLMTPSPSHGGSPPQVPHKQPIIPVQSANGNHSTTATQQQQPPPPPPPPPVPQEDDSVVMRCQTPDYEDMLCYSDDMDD
UniProt O00148: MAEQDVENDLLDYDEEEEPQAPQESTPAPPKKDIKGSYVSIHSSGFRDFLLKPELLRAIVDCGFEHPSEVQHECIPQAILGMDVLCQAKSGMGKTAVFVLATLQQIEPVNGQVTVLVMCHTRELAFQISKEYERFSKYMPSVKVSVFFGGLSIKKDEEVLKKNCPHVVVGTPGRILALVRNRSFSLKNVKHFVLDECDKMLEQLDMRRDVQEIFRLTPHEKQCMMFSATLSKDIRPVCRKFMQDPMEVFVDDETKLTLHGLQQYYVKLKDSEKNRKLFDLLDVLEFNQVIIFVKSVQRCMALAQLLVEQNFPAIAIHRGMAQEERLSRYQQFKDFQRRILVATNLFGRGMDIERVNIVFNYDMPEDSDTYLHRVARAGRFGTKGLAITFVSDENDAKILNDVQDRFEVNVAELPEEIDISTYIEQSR

What was measured:
[1] = target: βGAL-NLS-UAP56aa195-428 (human) (UniProt Q13838); assay: co-IP; HEK293T cells cotransfected with pUL69 and NLS-βGal or βGal-NLS-UAP56 truncations; immunoprecipitation with anti-β-galactosidase, detection with α-pUL69; CoIP buffer 50 mM Tris-HCl pH 8.0, 150 mM NaCl, 5 mM EDTA, 0.5% NP-40
[2] = target: βGAL-NLS-UAP56aa227-428 (human) (UniProt Q13838); assay: as above
[3] = target: βGAL-NLS-UAP56aa298-428 (human) (UniProt Q13838); assay: as above
[4] = target: pUL69 fused to the GAL4 DNA-binding domain (human cytomegalovirus) (UniProt P16749); assay: two-hybrid; S. cerevisiae Y153; UAP56 or URH49 variants fused to the GAL4 activation domain, REF or pUL69 fused to the GAL4 DNA-binding domain; filter-lift assay for β-galactosidase
[5] = target: FLAG-UAP56aa195-428 (human) (UniProt Q13838); assay: co-IP; HEK293T cells cotransfected with HA-Rae1 and FLAG-tagged UL69, UAP56 or URH49 variants; immunoprecipitation with anti-FLAG, detection with polyclonal HA-antibody; CoIP buffer 50 mM Tris-HCl pH 8.0, 150 mM NaCl, 5 mM EDTA, 0.5% NP-40
[6] = target: FLAG-UAP56aa1-194 (human) (UniProt Q13838); assay: as above
[7] = target: FLAG-UAP56 full-length (human) (UniProt Q13838); assay: as above
[8] = target: FLAG-UAP56-Q289R+F312A (human) (UniProt Q13838); assay: as above
[9] = target: FLAG-UL69 (human cytomegalovirus) (UniProt P16749); assay: as above
[10] = target: FLAG-URH49 full-length (human) (UniProt O00148); assay: as above

pUL69 (from UniProt P16749 1-744)
binding [1]: binds
binding [2]: binds
binding [3]: no binding

URH49 aa194-427 fused to the GAL4 activation domain (from UniProt O00148 194-427) (domain or fragment)
binding [4]: binds

UAP56 aa195-428 fused to the GAL4 activation domain (from UniProt Q13838 195-428) (domain or fragment)
binding [4]: binds

B1: HA-Rae1 (protein, UniProt P78406 1-368)
chain: MSLFGTTSGFGTSGTSMFGSATTDNHNPMKDIEVTSSPDDSIGCLSFSPPTLPGNFLIAGSWANDVRCWEVQDSGQTIPKAQQMHTGPVLDVCWSDDGSKVFTASCDKTAKMWDLSSNQAIQIAQHDAPVKTIHWIKAPNYSCVMTGSWDKTLKFWDTRSSNPMMVLQLPERCYCADVIYPMAVVATAERGLIVYQLENQPSEFRRIESPLKHQHRCVAIFKDKQNKPTGFALGSIEGRVAIHYINPPNPAKDNFTFKCHRSNGTNTSAPQDIYAVNGIAFHPVHGTLATVGSDGRFSFWDKDARTKLKTSEQLDQPISACCFNHNGNIFAYASSYDWSKGHEFYNPQKKNYIFLRNAAEELKPRNKK
binding [5]: no binding
binding [6]: binds
binding [7]: no binding
binding [8]: no binding
binding [9]: binds weakly
binding [10]: no binding
